Measurements published in PubChem BioAssay AID743255 (National Center for Advancing Translational Sciences (NCATS), 2014).
Hit rate of the full screen: of about 390,000 compounds, about 910 (0.23%) were called active. About 5% were inconclusive and are not listed. The call rests on the fitted dose curve; in most records, active means well fitted inhibition curve with a large enough effect; inconclusive means small, poorly fitted or top-dose-only effect; inactive means no such curve, though single readings can be large or run the other way. Only a part is listed here, and it is no random draw.

Biological target: Ubiquitin carboxyl-terminal hydrolase 1 (Homo sapiens) (UniProt O94782)
Test: Inhibitors of USP1/UAF1: Primary Screen; further: nearly all actives have a fitted effect of over 60% in size
Conditions: recombinant USP1/UAF1, Ub-Rhodamine cleavage fluorescence; activity change, negative = inhibition: at 57.1 µM (top of the series)
Outline: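 USP1/UAF1 complex at 1 nM was preincubated with compound for 15 min at room temperature, then Ub-Rho substrate (150nM final) was added. Fluorescence (480/540 nm) was read kinetically, 6 reads every 60 seconds.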
On the % scale 0 is the no-effect control and ±100 the full control effect; potency means the concentration at half of the fitted maximal effect.

UniProt O94782, sequence (O94782 whole entry, looked up): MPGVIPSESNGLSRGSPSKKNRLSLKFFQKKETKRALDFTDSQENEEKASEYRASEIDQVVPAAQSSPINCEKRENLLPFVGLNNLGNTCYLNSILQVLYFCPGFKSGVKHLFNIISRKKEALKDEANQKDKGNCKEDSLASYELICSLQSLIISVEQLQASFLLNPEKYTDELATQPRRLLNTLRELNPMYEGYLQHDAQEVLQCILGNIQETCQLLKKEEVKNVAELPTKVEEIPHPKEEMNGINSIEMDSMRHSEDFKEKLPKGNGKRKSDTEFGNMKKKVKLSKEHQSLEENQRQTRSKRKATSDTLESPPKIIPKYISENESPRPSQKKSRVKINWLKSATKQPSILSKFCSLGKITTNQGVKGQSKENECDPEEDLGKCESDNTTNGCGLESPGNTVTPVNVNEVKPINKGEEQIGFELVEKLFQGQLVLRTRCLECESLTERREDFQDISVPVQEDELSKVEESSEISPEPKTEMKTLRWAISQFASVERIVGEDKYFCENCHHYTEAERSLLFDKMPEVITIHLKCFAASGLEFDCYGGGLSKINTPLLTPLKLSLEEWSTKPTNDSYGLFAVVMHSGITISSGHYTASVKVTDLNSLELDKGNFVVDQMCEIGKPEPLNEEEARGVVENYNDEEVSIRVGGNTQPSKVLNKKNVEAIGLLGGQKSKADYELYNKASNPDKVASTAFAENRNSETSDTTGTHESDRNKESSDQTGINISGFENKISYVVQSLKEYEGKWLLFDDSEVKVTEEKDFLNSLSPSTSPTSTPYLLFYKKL

Activity change, negative = inhibition, inactive:
COc1cccc(S(=O)(=O)N(C)C[C@@H]2OCc3cnnn3CCCC(=O)N([C@@H](C)CO)C[C@@H]2C)c1 4.83%
COc1ccccc1CCNC(=O)C1CCN(c2nnc(C)c3c(C)n(-c4ccc(C)cc4)nc23)CC1 -12.3%
CC(C)C(=O)Nc1nnc(S(=O)(=O)N2c3ccccc3CC2C)s1 (stereo unspecified) -22.7%
CCN1/C(=C/C=C/c2oc3ccc4ccccc4c3[n+]2CC)Oc2ccc3ccccc3c21 157%
C[C@H](CO)N1C[C@H](C)[C@@H](CN(C)S(=O)(=O)c2ccc3c(c2)OCCCO3)OCc2cn(nn2)CCCC1=O -16.5%
C[C@@H]1CN([C@H](C)CO)C(=O)CCCn2nncc2CO[C@H]1CN(C)Cc1cccc(C(=O)O)c1 -3.28%
NC(=O)[C@@H]1CC2(CC(c3cccc(NC(=O)CC(c4ccccc4)c4ccccc4)c3)=NO2)CN1C(=O)c1ccc(Cl)cc1 (stereo partly specified) 19.7%
C[C@H]1CN([C@@H](C)CO)C(=O)CCCn2nncc2CO[C@@H]1CN(C)Cc1ccccc1 -10.4%
C[C@@H]1COC(=O)[C@H](Cc2ccc(F)cc2)C/C=C\C[C@@H](CC(=O)NCCO)C(=O)N1 -28.6%
O=C1NC[C@H](c2ccccc2)OC(=O)[C@@H](Cc2ccc(F)cc2)CC/C=C/C[C@@H]1CC(=O)N(CCO)Cc1ccccc1 -21.7%
CCc1ccc(C(=O)/C=C/Nc2ccc(S(=O)(=O)Nc3cnc4ccccc4n3)cc2)cc1 -26.8%
C[C@H](CO)N1C[C@H](C)[C@@H](CN(C)S(=O)(=O)c2ccc3ccccc3c2)OCc2cn(nn2)CCCC1=O -12.6%
Cc1cccc(C(=O)N=c2c(C#N)cc3c(=O)n4cccc(C)c4nc3n2Cc2ccco2)c1 -9.65%
COc1ccc(N=C2SCC(=O)N2c2ccc(OC)cc2)cc1 36.1%
C[C@@H]1CCC[C@]2(O[C@H](CCO)C[C@H](O)[C@H]2O)O1 -2.24%
C[C@H](NC(=O)c1[nH]cnc1C(=O)N[C@H](C)c1ccccc1)c1ccccc1 -23.8%
Cc1cccc(S(=O)(=O)N(C)C[C@H]2OCc3cnnn3CCCC(=O)N([C@H](C)CO)C[C@H]2C)c1 0.268%
Cc1ccc(NC(=O)CN(C)S(=O)(=O)c2cccc3cccnc23)cc1F -11.2%
OCC[C@H]1C[C@H](O)[C@@H](O)[C@@]2(CCCO2)O1 -2.54%
O=C(C[C@@H]1C/C=C/CC[C@H](Cc2ccc(F)cc2)C(=O)O[C@H](c2ccccc2)CNC1=O)NCCO 26%
C[C@H](CO)N1C[C@H](C)[C@H](CN(C)C(=O)Nc2cccc3ccccc23)OCc2cnnn2CCCC1=O -6.41%
CCc1ccc(C2CC(=O)Nc3c2c(=O)nc2c(C)cccn32)cc1 (stereo unspecified) -11.1%
CCCc1cc(-n2ccnc2)n2c(nc3ccccc32)c1C#N 162%
C=CCOC(=O)C1=C[C@H](c2ccc(C(F)(F)F)cc2)[C@@H](CCCO)[C@H](OCC)O1 -25.4%
O=C1NCCOC(=O)[C@@H](Cc2ccc(F)cc2)C/C=C\C[C@@H]1CC(=O)N(CCO)Cc1ccccc1 -13.1%
C[C@H]1CN([C@@H](C)CO)C(=O)c2cc(Br)cnc2O[C@@H]1CN(C)S(=O)(=O)c1ccccc1 -20.1%
C[C@@H]1CN([C@H](C)CO)C(=O)CCCn2nncc2CO[C@H]1CN(C)C(=O)NC1CCCCC1 -22.3%
COc1ccc(OC)c(/C=C(\C#N)c2nc3ccccc3c(=O)[nH]2)c1 147%
C[C@H]1CN([C@@H](C)CO)C(=O)CCCn2cc(nn2)CO[C@@H]1CN(C)S(=O)(=O)c1ccc2c(c1)OCCCO2 -7.54%
O=C(CSc1nc2c([nH]c3ccccc32)c(=O)n1-c1ccccc1)N1CCOCC1 -14.8%
CCCCN(C)CC(O)Cn1cc(/C=C/C(=O)c2ccc(C)cc2)c2ccccc21 (stereo unspecified) -21.7%
CC(C)c1ccc(NC(=O)CCS(=O)(=O)c2cccc3nonc23)cc1 -8.7%
O=C1c2ccccc2-c2onc3ccc(NCc4ccco4)c1c23 43.5%
CCc1ccc(NC(=O)CCS(=O)(=O)c2ccc3c(c2)n(C)c(=O)c(=O)n3C)cc1 44.3%
CN(C(=O)CSc1cn(CC(=O)N2CCOCC2)c2ccccc12)c1ccccc1 -25.2%
CCCCN(CC)CCNC(=O)Cn1cc2c(n1)-c1c(oc(C(=O)N3CCCC3)c1C)CC2 -26.8%
CCc1cccc(-n2nnc(-c3nc(-c4ccccc4Cl)no3)c2N)c1 32.3%
O=C1N[C@@H](Cc2ccccc2)COC(=O)[C@@H](Cc2ccc(F)cc2)CC/C=C/C[C@@H]1CC(=O)N(CCO)Cc1ccccc1 -22.9%
C=CC[C@H](CC(=O)NCCO)C(=O)N[C@H](COC(=O)[C@H](CC=C)CC(=O)OC(C)(C)C)Cc1c[nH]c2ccccc12 -9.68%
Cc1ccc(-c2ccc(CCC(=O)O)n2-c2cccc(O)c2)cc1 -21.3%
C[C@@H]1CN([C@H](C)CO)C(=O)CCCn2cc(nn2)CO[C@H]1CN(C)C(=O)c1cc(-c2ccccc2)on1 8.81%
C[C@H](CO)N1C[C@H](C)[C@@H](CN(C)S(=O)(=O)c2ccccc2)Oc2ccc(NC(=O)Nc3ccc(C(F)(F)F)cc3)cc2C1=O -26.8%
COCCCn1c(=O)/c(=C\c2ccccc2OC(C)C)s/c1=C(/C#N)C(=O)Nc1ccc(C(=O)O)cc1 -13.5%
O=C(c1ccc2c(c1)CCN2S(=O)(=O)c1ccccc1)N1CCN(c2ccc(F)cc2)CC1 -17%
CC[C@]1(c2ccccc2OC)C(=O)N(C(=O)OC)N1C(=O)OC -20.7%
Cc1cccc(S(=O)(=O)N(C)C[C@H]2OCc3cnnn3CCCC(=O)N([C@@H](C)CO)C[C@H]2C)c1 -12.9%
CCc1nn(CC(=O)N2CCN(c3cc(C)ccc3C)CC2)c(=O)c2cc3occc3n12 -0.668%
COC(C/C=C\[C@@H](O)COCc1ccccc1)OC 7.75%
C[C@@H]1CN([C@@H](C)CO)C(=O)CCCn2cc(nn2)CO[C@H]1CN(C)S(=O)(=O)c1ccc(-n2cccn2)cc1 -6.8%
Cc1ccc(OC(=O)N(C)C[C@H]2OCc3cn(nn3)CCCC(=O)N([C@H](C)CO)C[C@@H]2C)cc1 -14.2%
Cc1cccc(N(C)C(=O)c2cc(S(=O)(=O)N3CCCCC3)c[nH]2)c1 -13.3%
CCCCN(C)CCCNC(=O)CN1C(=O)CSc2ccc(S(=O)(=O)N3CCOCC3)cc21 -2.87%
C=CC[C@@H](CC(=O)N[C@@H](CO)Cc1ccccc1)C(=O)N[C@H](COC(=O)[C@@H](CC=C)CC(=O)OC(C)(C)C)Cc1c[nH]c2ccccc12 -13.7%
O=C(NCc1ccccc1)C1=C[C@H](c2ccc(Br)cc2)C[C@H](OCCCCO)O1 -7.43%
COc1ccc(C(=O)Nc2ccc3nc(N4CCCCC4)cc(C)c3c2)cc1OC -16.3%
C=C1C[C@H](O[C@@H]2O[C@H](CO)[C@@H](O)[C@H](O)[C@H]2O)[C@@H]2[C@H](OC(=O)[C@H]2C)[C@H]2[C@H](C)[C@@H](O)C[C@@H]12 -24.1%
CCCCCn1c(=O)[nH]c2cc(C(=O)N3CCN(c4ccccc4F)CC3)ccc2c1=O -23.1%
C[C@H]1COC(=O)[C@H](CC(=O)OC(C)(C)C)C/C=C\C[C@H](CC(=O)N(CCO)Cc2ccccc2)C(=O)N1 -25.3%
CCOC(=O)N(C)C[C@H]1OCc2cnnn2CCCC(=O)N([C@H](C)CO)C[C@H]1C -27.1%
CCOC(=O)[C@@H]1[C@H]2COc3ccccc3[C@@H]2N2C(=O)N(c3ccccc3)C(=O)[C@@]12C 7.34%
CCO[C@@H]1OC(C(=O)Nc2ccccc2)=C[C@H](c2ccc(Br)cc2)[C@H]1CCCO -23.5%
C=CC[C@H](CC(=O)N(CCO)Cc1ccccc1)C(=O)N[C@@H](COC(=O)[C@@H](CC=C)Cc1ccc(F)cc1)Cc1ccccc1 -22.4%
O=C(NCc1ccccc1)C1=C[C@H](c2ccc3c(c2)OCO3)C[C@H](OCc2ccc(CO)cc2)O1 -17.2%
CCCNC(=O)Cn1c(=O)/c(=C\c2ccc(-c3cccc([N+](=O)[O-])c3)o2)s/c1=C\C(=O)C(C)(C)C 32.3%
CC(C)(C)OC(=O)C[C@@H]1C/C=C\C[C@@H](CC(=O)N[C@H](CO)Cc2ccccc2)C(=O)N2CCC[C@@H]2COC1=O -27.4%

Potency, active:
O=c1oc2c3c4c(cc2c(C(F)(F)F)c1CCN1CCOCC1)CCCN4CCC3 6.31 µM
O=C1/C(=C\c2cc(Cl)c(O)c(Cl)c2)SC(=S)N1Cc1ccccc1 3.98 µM
CN1/C(=C\C=C2/SC(=S)NC2=O)C(C)(C)c2ccccc21 25.1 µM
CCN1CCc2c(sc(NC(=O)c3ccc(S(=O)(=O)N(CC)c4ccccc4)cc3)c2C(N)=O)C1 28.2 µM
NC1=CC(=O)C(=O)c2cccnc21 3.55 µM
N#Cc1c(-c2ccccc2)nc(SCC(=O)N2c3ccccc3Sc3ccccc32)[nH]c1=O 31.6 µM
C=CCN1C(=O)/C(=C/c2ccc(OC(C)=O)c(OCC)c2[N+](=O)[O-])SC1=S 14.1 µM
N#C/C(=C\c1coc2ccc(O)cc2c1=O)C(=O)Nc1nc2ccccc2s1 25.1 µM
O=C(O)c1ccc2c(c1)[C@@H]1C=CC[C@@H]1[C@H](c1ccccn1)N2 31.6 µM
CCOc1cccc(CNc2ccc(O)cc2)c1OCc1ccc(Cl)cc1Cl 31.6 µM
Cc1ccc(C)n1Cc1ccc(C(=O)O)cc1 25.1 µM
Cn1cccc1/C=C1\CCC/C(=C\c2cccn2C)C1=O 22.4 µM
CCOC(=O)c1c(C)sc(-c2c(-c3cc(C)ccc3C)[nH]c3c2c(=O)n(C)c(=O)n3C)c1O 28.2 µM
CCOc1ccc(NC(=S)Nc2ccc3nsnc3c2)cc1 28.2 µM
CCNc1ccc(Br)cc(C(=O)/C=C/c2ccccc2Cl)c1=O 28.2 µM

Potency, inactive:
COCCCC/C(=N\OCCN)c1ccc(C(F)(F)F)cc1
